We go through 153 variants from a collection of fitness landscapes (doi:10.1016/j.celrep.2020.107928).

Over roughly 81,000 sequences, “one-hybrid fitness for binding parS DNA” has its median near -0.17; the highest 2% begin near 0.51. Some of the results follow.

B1: Caulobacter ParB omega fusion; a variant is named by its letters at X, in order, B8GW30 (parent)
chain: MESVVVGEPGMSEGRRGLGRGLSALLGEVDAAPAQAPGEQLGGSREAPIEILQRNPDQPRRTFREEDLEDLSNSIREKGVLQPILVRPSPDTAGEYQIVAGERAWRAAQRAGLKTVPIMVRELDDLAVLEIGIIENVQRADLNVLEEALSYKVLMEKFERTQENIAQTIGKSXSHVANXMRLLXLPDEVQSYLVSGELTAXHARAIAAAADPVALAKQIIEGGLSVRETEALARKAPNLSAGKSKGGRPPRVKDTDTQALESDLSSVLGLDVSIDHRGSTGTLTITYATLEQLDDLCNRLTRGI

The variants in this assay derive from B1. Put plainly: one-hybrid fitness for binding parS DNA (scaled: cognate 1, non-cognate 0); higher = stronger binding. The note with it: with parS DNA site. Summed up:
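Caulobacter ParB libraries with four specificity codons randomised were screened by bacterial one-hybrid selection in the E. coli USO strain, using a HIS3 reporter whose site lies 19 bp from the promoter. Selection ran for 48 hours at 37°C on M9 lacking histidine, with 0.1 mM IPTG and 5 mM 3-AT. Plasmids were Illumina-sequenced before and after selection, three replicate libraries were pooled, and variants with under 10 reads were dropped. Fitness is the log change in each variant's read ratio to wild type, rescaled against the cognate and non-cognate sites.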
On to LCQG, for which the “one-hybrid fitness for binding parS DNA” value was at most 0.2.

Turning to AEPM, the “one-hybrid fitness for binding parS DNA” value was at most 0.2.

In the case of LGRS, the “one-hybrid fitness for binding parS DNA” value was at most 0.2.

As for SQVK, the “one-hybrid fitness for binding parS DNA” value was at most 0.2.

Regarding HHQA, the “one-hybrid fitness for binding parS DNA” value is at most 0.2.

Consider IMLV, for which the “one-hybrid fitness for binding parS DNA” value is at most 0.2.

In the case of DVVY, the “one-hybrid fitness for binding parS DNA” value is at most 0.2.

As for GHVC, the “one-hybrid fitness for binding parS DNA” value was at most 0.2.

QASE: the “one-hybrid fitness for binding parS DNA” value is at most 0.2.

As to IRTH, the “one-hybrid fitness for binding parS DNA” value is at most 0.2.

On to VACR, for which the “one-hybrid fitness for binding parS DNA” value is at most 0.2.

As for KGAR, the “one-hybrid fitness for binding parS DNA” value is at most 0.2.

Regarding HAVR, the “one-hybrid fitness for binding parS DNA” value is at most 0.2.

As to WGFR, the “one-hybrid fitness for binding parS DNA” value is at most 0.2.

As to DVKF, the “one-hybrid fitness for binding parS DNA” value is at most 0.2.

For VNHV, the “one-hybrid fitness for binding parS DNA” value was at most 0.2.

Take LTAE: the “one-hybrid fitness for binding parS DNA” value is at most 0.2.

GILT: the “one-hybrid fitness for binding parS DNA” value is at most 0.2.

In the case of NHAT, the “one-hybrid fitness for binding parS DNA” value is at most 0.2.

For HIAC, the “one-hybrid fitness for binding parS DNA” value was at most 0.2.

Take RQVQ: the “one-hybrid fitness for binding parS DNA” value is at most 0.2.

Consider SWSP, for which the “one-hybrid fitness for binding parS DNA” value is at most 0.2.

In the case of PGFL, the “one-hybrid fitness for binding parS DNA” value is at most 0.2.

In the case of RVLM, the “one-hybrid fitness for binding parS DNA” value was found to be 0.309.

On to CESR, for which the “one-hybrid fitness for binding parS DNA” value is at most 0.2.

Turning to APSC, the “one-hybrid fitness for binding parS DNA” value is at most 0.2.

With AHHD, the “one-hybrid fitness for binding parS DNA” value was at most 0.2.

TGFG: the “one-hybrid fitness for binding parS DNA” value is at most 0.2.

For IRYQ, the “one-hybrid fitness for binding parS DNA” value was at most 0.2.

Consider QTSD, for which the “one-hybrid fitness for binding parS DNA” value is at most 0.2.

As to GTAG, the “one-hybrid fitness for binding parS DNA” value is at most 0.2.

Take LRMN: the “one-hybrid fitness for binding parS DNA” value was at most 0.2.

In the case of PFGP, the “one-hybrid fitness for binding parS DNA” value was at most 0.2.

Regarding QSSL, the “one-hybrid fitness for binding parS DNA” value is at most 0.2.

Take AKKS: the “one-hybrid fitness for binding parS DNA” value was at most 0.2.

With NSLP, the “one-hybrid fitness for binding parS DNA” value is at most 0.2.

With RQMC, the “one-hybrid fitness for binding parS DNA” value came out at 0.945.

For WRIR, the “one-hybrid fitness for binding parS DNA” value was at most 0.2.

On to NVSS, for which the “one-hybrid fitness for binding parS DNA” value was at most 0.2.

For the variant MHMR, the “one-hybrid fitness for binding parS DNA” value is at most 0.2.

Take PIFT: the “one-hybrid fitness for binding parS DNA” value is at most 0.2.

On to GEYS, for which the “one-hybrid fitness for binding parS DNA” value was at most 0.2.

With QVLY, the “one-hybrid fitness for binding parS DNA” value is at most 0.2.

On to AANL, for which the “one-hybrid fitness for binding parS DNA” value was at most 0.2.

In the case of WTEY, the “one-hybrid fitness for binding parS DNA” value is at most 0.2.

In the case of NRHR, the “one-hybrid fitness for binding parS DNA” value was at most 0.2.

GHTG: the “one-hybrid fitness for binding parS DNA” value was at most 0.2.

QWRL: the “one-hybrid fitness for binding parS DNA” value is at most 0.2.

On to FVLS, for which the “one-hybrid fitness for binding parS DNA” value is at most 0.2.

With NLGA, the “one-hybrid fitness for binding parS DNA” value is at most 0.2.

With QKDL, the “one-hybrid fitness for binding parS DNA” value is at most 0.2.

With HFQC, the “one-hybrid fitness for binding parS DNA” value was at most 0.2.

In the case of MAPA, the “one-hybrid fitness for binding parS DNA” value is at most 0.2.

YSSF: the “one-hybrid fitness for binding parS DNA” value was at most 0.2.

Turning to GPDR, the “one-hybrid fitness for binding parS DNA” value was at most 0.2.

For NLEN, the “one-hybrid fitness for binding parS DNA” value was at most 0.2.

AFWS: the “one-hybrid fitness for binding parS DNA” value is at most 0.2.

Turning to PVFS, the “one-hybrid fitness for binding parS DNA” value was at most 0.2.

As to SCQW, the “one-hybrid fitness for binding parS DNA” value was at most 0.2.

For the variant IMKG, the “one-hybrid fitness for binding parS DNA” value was at most 0.2.

As for KSIE, the “one-hybrid fitness for binding parS DNA” value is at most 0.2.

On to RHFV, for which the “one-hybrid fitness for binding parS DNA” value was at most 0.2.

Regarding FNLG, the “one-hybrid fitness for binding parS DNA” value is at most 0.2.

Take TMKH: the “one-hybrid fitness for binding parS DNA” value was at most 0.2.

Regarding KDID, the “one-hybrid fitness for binding parS DNA” value is at most 0.2.

For the variant KVEV, the “one-hybrid fitness for binding parS DNA” value is at most 0.2.

Regarding DTRN, the “one-hybrid fitness for binding parS DNA” value was at most 0.2.

Regarding LYKF, the “one-hybrid fitness for binding parS DNA” value is at most 0.2.

With HACC, the “one-hybrid fitness for binding parS DNA” value was at most 0.2.

For the variant GSVW, the “one-hybrid fitness for binding parS DNA” value was at most 0.2.

As for SSKL, the “one-hybrid fitness for binding parS DNA” value was at most 0.2.

MLVT: the “one-hybrid fitness for binding parS DNA” value was at most 0.2.

For RPPA, the “one-hybrid fitness for binding parS DNA” value was at most 0.2.

Turning to SWSC, the “one-hybrid fitness for binding parS DNA” value is at most 0.2.

With AEPY, the “one-hybrid fitness for binding parS DNA” value was at most 0.2.

Turning to RKRG, the “one-hybrid fitness for binding parS DNA” value was 0.851.

On to ILNL, for which the “one-hybrid fitness for binding parS DNA” value was at most 0.2.

For YART, the “one-hybrid fitness for binding parS DNA” value is at most 0.2.

As for AKDP, the “one-hybrid fitness for binding parS DNA” value is at most 0.2.

In the case of ILKW, the “one-hybrid fitness for binding parS DNA” value is at most 0.2.

EYWV: the “one-hybrid fitness for binding parS DNA” value is at most 0.2.

For the variant IRAC, the “one-hybrid fitness for binding parS DNA” value is at most 0.2.

For QDQF, the “one-hybrid fitness for binding parS DNA” value was at most 0.2.

Regarding EAKC, the “one-hybrid fitness for binding parS DNA” value is at most 0.2.

With VDLS, the “one-hybrid fitness for binding parS DNA” value is at most 0.2.

For the variant RKLL, the “one-hybrid fitness for binding parS DNA” value is at most 0.2.

As to NAAI, the “one-hybrid fitness for binding parS DNA” value was at most 0.2.

As to DRHH, the “one-hybrid fitness for binding parS DNA” value is at most 0.2.

For SLNV, the “one-hybrid fitness for binding parS DNA” value is at most 0.2.

As to YGED, the “one-hybrid fitness for binding parS DNA” value was at most 0.2.

For the variant PYVS, the “one-hybrid fitness for binding parS DNA” value is at most 0.2.

Regarding RIWV, the “one-hybrid fitness for binding parS DNA” value is at most 0.2.

With PAAF, the “one-hybrid fitness for binding parS DNA” value was at most 0.2.

On to QLVI, for which the “one-hybrid fitness for binding parS DNA” value is at most 0.2.

LGRP: the “one-hybrid fitness for binding parS DNA” value is at most 0.2.

CTMP: the “one-hybrid fitness for binding parS DNA” value was at most 0.2.

In the case of PCTT, the “one-hybrid fitness for binding parS DNA” value was at most 0.2.

On to RHGN, for which the “one-hybrid fitness for binding parS DNA” value worked out at 0.363.

In the case of CIRN, the “one-hybrid fitness for binding parS DNA” value is at most 0.2.

On to WSLT, for which the “one-hybrid fitness for binding parS DNA” value is at most 0.2.

For the variant CWRS, the “one-hybrid fitness for binding parS DNA” value was at most 0.2.

Turning to KYTC, the “one-hybrid fitness for binding parS DNA” value is at most 0.2.

In the case of PNYI, the “one-hybrid fitness for binding parS DNA” value is at most 0.2.

On to DYPG, for which the “one-hybrid fitness for binding parS DNA” value was at most 0.2.

On to PKHP, for which the “one-hybrid fitness for binding parS DNA” value is at most 0.2.

Consider LYCE, for which the “one-hybrid fitness for binding parS DNA” value is at most 0.2.

With LAPF, the “one-hybrid fitness for binding parS DNA” value was at most 0.2.

In the case of RGPM, the “one-hybrid fitness for binding parS DNA” value is at most 0.2.

For KARG, the “one-hybrid fitness for binding parS DNA” value was at most 0.2.

On to PYGL, for which the “one-hybrid fitness for binding parS DNA” value was at most 0.2.

For the variant CECW, the “one-hybrid fitness for binding parS DNA” value was at most 0.2.

As for TPNC, the “one-hybrid fitness for binding parS DNA” value is at most 0.2.

As to KPRF, the “one-hybrid fitness for binding parS DNA” value is at most 0.2.

With VNAM, the “one-hybrid fitness for binding parS DNA” value is at most 0.2.

LVVL: the “one-hybrid fitness for binding parS DNA” value was at most 0.2.

For KHTY, the “one-hybrid fitness for binding parS DNA” value was at most 0.2.

Take YKGS: the “one-hybrid fitness for binding parS DNA” value was at most 0.2.

On to GEMY, for which the “one-hybrid fitness for binding parS DNA” value was at most 0.2.

In the case of SPWR, the “one-hybrid fitness for binding parS DNA” value was at most 0.2.

Take YSDE: the “one-hybrid fitness for binding parS DNA” value is at most 0.2.

As to QWSV, the “one-hybrid fitness for binding parS DNA” value was at most 0.2.

For QLIN, the “one-hybrid fitness for binding parS DNA” value is at most 0.2.

Regarding FIVS, the “one-hybrid fitness for binding parS DNA” value is at most 0.2.

Take LSWY: the “one-hybrid fitness for binding parS DNA” value is at most 0.2.

In the case of NVAT, the “one-hybrid fitness for binding parS DNA” value is at most 0.2.

On to MCRV, for which the “one-hybrid fitness for binding parS DNA” value is at most 0.2.

Take RNEQ: the “one-hybrid fitness for binding parS DNA” value is at most 0.2.

Regarding MHDC, the “one-hybrid fitness for binding parS DNA” value was at most 0.2.

RTVF: the “one-hybrid fitness for binding parS DNA” value was at most 0.2.

For the variant DPPA, the “one-hybrid fitness for binding parS DNA” value is at most 0.2.

As for SMTP, the “one-hybrid fitness for binding parS DNA” value was at most 0.2.

Take LTMC: the “one-hybrid fitness for binding parS DNA” value is at most 0.2.

PCPF: the “one-hybrid fitness for binding parS DNA” value was at most 0.2.

For the variant VSAT, the “one-hybrid fitness for binding parS DNA” value was at most 0.2.

Consider NQPA, for which the “one-hybrid fitness for binding parS DNA” value is at most 0.2.

For the variant DPDC, the “one-hybrid fitness for binding parS DNA” value is at most 0.2.

Take PRLQ: the “one-hybrid fitness for binding parS DNA” value was at most 0.2.

For NQNY, the “one-hybrid fitness for binding parS DNA” value was at most 0.2.

Consider AYIY, for which the “one-hybrid fitness for binding parS DNA” value stood at 0.265.

For the variant HSTF, the “one-hybrid fitness for binding parS DNA” value was at most 0.2.

Take RALG: the “one-hybrid fitness for binding parS DNA” value stood at 1.01.

Regarding RPQI, the “one-hybrid fitness for binding parS DNA” value was at most 0.2.

For the variant DWFI, the “one-hybrid fitness for binding parS DNA” value is at most 0.2.

Take VMSD: the “one-hybrid fitness for binding parS DNA” value is at most 0.2.

On to WSDT, for which the “one-hybrid fitness for binding parS DNA” value was at most 0.2.

Regarding SLRK, the “one-hybrid fitness for binding parS DNA” value is at most 0.2.

Consider PGCP, for which the “one-hybrid fitness for binding parS DNA” value is at most 0.2.

KCER: the “one-hybrid fitness for binding parS DNA” value is at most 0.2.

Take VWAI: the “one-hybrid fitness for binding parS DNA” value is at most 0.2.

Regarding HLFT, the “one-hybrid fitness for binding parS DNA” value is at most 0.2.

In the case of RSGW, the “one-hybrid fitness for binding parS DNA” value was 0.233.

Regarding MALK, the “one-hybrid fitness for binding parS DNA” value is at most 0.2.

For SSNS, the “one-hybrid fitness for binding parS DNA” value was at most 0.2.
